# The supplement of paper PMC4604168 (melanoma cell lines)
# The other results are listed elsewhere or left out. Most values come without repeats; read them as rough.
# Experiments:
# Assay in all cases: cell count relative to DMSO control; melanoma cells; higher = more viable cells
# Conditions in all cases: library dose: standard library concentration; 72 h
# SkMel28 = system: SkMel28
# SkMel2 = system: SkMel2
# SkMel30 = system: SkMel30
# SkMel5 = system: SkMel5
# UACC257 = system: UACC257
# UACC62 = system: UACC62
# WM115 = system: WM115
# WM1716 = system: WM1716
# WM1745 = system: WM1745
# WM3526 = system: WM3526
# 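Note: cells treated in 1,536-well plates, then fixed and DAPI-stained, with nuclei counted from automated high-throughput microscope images.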
SMILES,cell count (SkMel28) [%],cell count (SkMel2) [%],cell count (SkMel30) [%],cell count (SkMel5) [%],cell count (UACC257) [%],cell count (UACC62) [%],cell count (WM115) [%],cell count (WM1716) [%],cell count (WM1745) [%],cell count (WM3526) [%]
"CCN(CC)CCNC(=O)c1c(C)[nH]c(/C=C2\C(=O)Nc3ccc(F)cc32)c1C [sunitinib] + Cn1c(Nc2ccc(C(F)(F)F)cc2)nc2cc(Oc3ccnc(-c4ncc(C(F)(F)F)[nH]4)c3)ccc21 [CHIR265] (first compound 2 µM, partner dose 0.4 µM)",30.4,18.9,48.2,32.6,78.9,28.9,33,55.1,39.8,29.4
"C[C@]1(O)C[C@@H](c2nc(-c3ccc4ccc(-c5ccccc5)nc4c3)c3c(N)nccn32)C1 + O=C(Nc1cccc(Cl)c1)Nc1ncc(CCNc2ncnc3ccsc23)s1 [SNS314] (first compound 2 µM, partner dose 0.004 µM)",56.9,77.6,94.3,70,57.5,58.4,38.6,48.7,46.5,62.4
"Cn1cnc2c(F)c(Nc3ccc(Br)cc3Cl)c(C(=O)NOCCO)cc21 [selumetinib] + c1cc(-c2cnn3cc(-c4ccc(OCCN5CCCCC5)cc4)cnc23)ccn1 [Dorsomorphin] (first compound 0.075 µM, partner dose 2 µM)",66.5,65.9,86.5,72.8,92,63.9,79.5,71.4,–,59.6
"COc1cc([C@@H]2c3cc4c(cc3[C@@H](O[C@@H]3O[C@@H]5CO[C@@H](C)O[C@H]5[C@H](O)[C@H]3O)[C@H]3COC(=O)[C@H]23)OCO4)cc(OC)c1O [etoposide] + CN1CCN(c2ccc3nc(-c4c(N)c5c(F)cccc5[nH]c4=O)[nH]c3c2)CC1 [Dovitinib] (first compound 0.1 µM, partner dose 0.5 µM)",57.4,48.7,74.3,59.8,64,57.4,59.9,50.2,45.8,73.2
"COc1cc([C@@H]2c3cc4c(cc3[C@@H](O[C@@H]3O[C@@H]5CO[C@@H](C)O[C@H]5[C@H](O)[C@H]3O)[C@H]3COC(=O)[C@H]23)OCO4)cc(OC)c1O [etoposide] + Cn1cnc2c(F)c(Nc3ccc(Br)cc3Cl)c(C(=O)NOCCO)cc21 [selumetinib] (first compound 0.1 µM, partner dose 0.075 µM)",39.3,36.9,42.5,70.9,90.2,48.9,61.3,64.4,88,54.2
"CCN(CC)CCNC(=O)c1c(C)[nH]c(/C=C2\C(=O)Nc3ccc(F)cc32)c1C [sunitinib] + Cc1cc(N2CCOCC2)cc2[nH]c(-c3c(NC[C@@H](O)c4cccc(Cl)c4)cc[nH]c3=O)nc12 [BMS536924] (first compound 2 µM, partner dose 1 µM)",80.6,54.3,74.6,48.8,86.5,50,78.7,93.2,37.1,52
"CCN(CC)CCNC(=O)c1c(C)[nH]c(/C=C2\C(=O)Nc3ccc(F)cc32)c1C [sunitinib] + CC(C)CCN1c2nc(Nc3cc(F)c(O)c(F)c3)ncc2N(C)C(=O)C1C [BID1870] (first compound 2 µM, partner dose 1 µM)",50.3,48.7,67.5,34,70.6,41.6,57.6,55.6,–,47.1
"Cn1cnc2c(F)c(Nc3ccc(Br)cc3Cl)c(C(=O)NOCCO)cc21 [selumetinib] + COCC[n+]1c2c(n(Cc3cnccn3)c1C)C(=O)c1ccccc1C2=O [YM155] (first compound 0.075 µM, partner dose 0.002 µM)",58.3,39.3,62.9,49,41.6,65.4,67.9,62.2,105,39.1
"CCN(CC)CCNC(=O)c1c(C)[nH]c(/C=C2\C(=O)Nc3ccc(F)cc32)c1C [sunitinib] + COC(=O)c1sccc1S(=O)(=O)Nc1ccc(Nc2ccccc2)cc1OC [GSK0660] (first compound 2 µM, partner dose 5 µM)",71.5,85.4,61.9,42.3,87.1,61.6,56.6,116,–,61.5
"COc1cc([C@@H]2c3cc4c(cc3[C@@H](O[C@@H]3O[C@@H]5CO[C@@H](C)O[C@H]5[C@H](O)[C@H]3O)[C@H]3COC(=O)[C@H]23)OCO4)cc(OC)c1O [etoposide] + Cn1cc(/C=C2\C(=O)Nc3cccnc32)c2ccccc21 [GW441756] (first compound 0.1 µM, partner dose 2 µM)",77.5,65.5,113,71.5,79.7,56.7,82.5,67,–,105
"CCN(CC)CCNC(=O)c1c(C)[nH]c(/C=C2\C(=O)Nc3ccc(F)cc32)c1C [sunitinib] + COc1ccc(COc2ccc(Cc3cnc(N)nc3N)cc2OC)cc1 [GW2580] (first compound 2 µM, partner dose 5 µM)",63.4,54.4,40.7,37.8,85.1,45.6,59.8,105,–,56.3
"C[C@]1(O)C[C@@H](c2nc(-c3ccc4ccc(-c5ccccc5)nc4c3)c3c(N)nccn32)C1 + COc1ccc2c(c1)CCC1C2CCC2(C)C(NCCCCCCN3C(=O)C=CC3=O)CCC12 [U73122] (first compound 2 µM, partner dose 2 µM)",96.5,82,74.3,74,86.9,61.8,93.9,63.3,–,71.1
"C[C@]1(O)C[C@@H](c2nc(-c3ccc4ccc(-c5ccccc5)nc4c3)c3c(N)nccn32)C1 + COc1ccc(COc2ccc(Cc3cnc(N)nc3N)cc2OC)cc1 [GW2580] (first compound 2 µM, partner dose 5 µM)",76.8,75.2,125,69.5,85.8,99.5,104,98,–,63.2
"Cn1cnc2c(F)c(Nc3ccc(Br)cc3Cl)c(C(=O)NOCCO)cc21 [selumetinib] + COc1cc(N2CCC(N3CCN(C)CC3)CC2)ccc1Nc1ncc(Cl)c(Nc2ccccc2S(=O)(=O)C(C)C)n1 [NVP-TAE684] (first compound 0.075 µM, partner dose 0.4 µM)",45.7,16.2,55.3,64.9,88.8,70.4,67.7,71,–,49.3
"C[C@]1(O)C[C@@H](c2nc(-c3ccc4ccc(-c5ccccc5)nc4c3)c3c(N)nccn32)C1 + COc1cc(N2CCC(N3CCN(C)CC3)CC2)ccc1Nc1ncc(Cl)c(Nc2ccccc2S(=O)(=O)C(C)C)n1 [NVP-TAE684] (first compound 2 µM, partner dose 0.4 µM)",84.5,76.6,107,62.7,102,81.6,85.8,84,–,71.7
"CCN(CC)CCNC(=O)c1c(C)[nH]c(/C=C2\C(=O)Nc3ccc(F)cc32)c1C [sunitinib] + CCN(CC)CCCCNc1ncc2cc(-c3cc(OC)cc(OC)c3)c(NC(=O)NC(C)(C)C)nc2n1 [PD173074] (first compound 2 µM, partner dose 0.5 µM)",57,56.8,50.8,43,94.7,54.8,73.8,97.9,–,54.7
"CCN(CC)CCNC(=O)c1c(C)[nH]c(/C=C2\C(=O)Nc3ccc(F)cc32)c1C [sunitinib] + CC1(C)NC(=O)N(c2ccc([N+](=O)[O-])c(C(F)(F)F)c2)C1=O [nilutamide] (first compound 2 µM, partner dose 5 µM)",60.9,–,75.2,46,68.8,71.5,55.6,83.8,52.9,41.1
"C[C@]1(O)C[C@@H](c2nc(-c3ccc4ccc(-c5ccccc5)nc4c3)c3c(N)nccn32)C1 + Cn1cc(/C=C2\C(=O)Nc3cccnc32)c2ccccc21 [GW441756] (first compound 2 µM, partner dose 2 µM)",87.4,–,82.3,62.9,86.9,75.3,93.1,98.4,–,78.2
"COc1cc([C@@H]2c3cc4c(cc3[C@@H](O[C@@H]3O[C@@H]5CO[C@@H](C)O[C@H]5[C@H](O)[C@H]3O)[C@H]3COC(=O)[C@H]23)OCO4)cc(OC)c1O [etoposide] + COc1ccc(COc2ccc(Cc3cnc(N)nc3N)cc2OC)cc1 [GW2580] (first compound 0.1 µM, partner dose 5 µM)",72.3,59.3,94.1,75.9,81.8,85.3,84.7,65,–,85.4
"Cn1cnc2c(F)c(Nc3ccc(Br)cc3Cl)c(C(=O)NOCCO)cc21 [selumetinib] + O=C1NC(=O)/C(=C/c2ccc(-c3ccc(F)cc3O)o2)S1 [AS252424] (first compound 0.075 µM, partner dose 5 µM)",61.3,40,59,64.5,102,44.5,80.1,84.7,–,46.8
"CCN(CC)CCNC(=O)c1c(C)[nH]c(/C=C2\C(=O)Nc3ccc(F)cc32)c1C [sunitinib] + O=C(Nc1ccccc1)c1cc([N+](=O)[O-])ccc1Cl [GW9662] (first compound 2 µM, partner dose 10 µM)",52.7,–,56.6,51.7,78.2,52.2,55.4,95.7,–,75.2
